Test results published in PubChem BioAssay AID488969 (Vanderbilt High Throughput Screening Facility, 2010).
Over roughly 110,000 compounds, “z-score” has its median near -0.1; the highest 2% begin near 2. The list shows a part of the results. Active and inactive are the calls of the source.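 Rule for the calls: active = z-score in the third read window above 3 or below -3; inactive = the rest.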

Biological target: Metabotropic glutamate receptor 8 (Rattus norvegicus) (UniProt P70579)
Test: mGluR8 Gi/Go-coupled signaling modulation – cell-based, rat, thallium flux, HTS, primary screen (AID 488969)
Conditions: HEK293 rat mGluR8, GIRK (G protein-gated inwardly rectifying potassium channel) thallium flux, FluoZin2; at 10 µM; stronger effect = higher value; submaximal glutamate (EC20) added with thallium

UniProt P70579, sequence (P70579 whole entry, looked up): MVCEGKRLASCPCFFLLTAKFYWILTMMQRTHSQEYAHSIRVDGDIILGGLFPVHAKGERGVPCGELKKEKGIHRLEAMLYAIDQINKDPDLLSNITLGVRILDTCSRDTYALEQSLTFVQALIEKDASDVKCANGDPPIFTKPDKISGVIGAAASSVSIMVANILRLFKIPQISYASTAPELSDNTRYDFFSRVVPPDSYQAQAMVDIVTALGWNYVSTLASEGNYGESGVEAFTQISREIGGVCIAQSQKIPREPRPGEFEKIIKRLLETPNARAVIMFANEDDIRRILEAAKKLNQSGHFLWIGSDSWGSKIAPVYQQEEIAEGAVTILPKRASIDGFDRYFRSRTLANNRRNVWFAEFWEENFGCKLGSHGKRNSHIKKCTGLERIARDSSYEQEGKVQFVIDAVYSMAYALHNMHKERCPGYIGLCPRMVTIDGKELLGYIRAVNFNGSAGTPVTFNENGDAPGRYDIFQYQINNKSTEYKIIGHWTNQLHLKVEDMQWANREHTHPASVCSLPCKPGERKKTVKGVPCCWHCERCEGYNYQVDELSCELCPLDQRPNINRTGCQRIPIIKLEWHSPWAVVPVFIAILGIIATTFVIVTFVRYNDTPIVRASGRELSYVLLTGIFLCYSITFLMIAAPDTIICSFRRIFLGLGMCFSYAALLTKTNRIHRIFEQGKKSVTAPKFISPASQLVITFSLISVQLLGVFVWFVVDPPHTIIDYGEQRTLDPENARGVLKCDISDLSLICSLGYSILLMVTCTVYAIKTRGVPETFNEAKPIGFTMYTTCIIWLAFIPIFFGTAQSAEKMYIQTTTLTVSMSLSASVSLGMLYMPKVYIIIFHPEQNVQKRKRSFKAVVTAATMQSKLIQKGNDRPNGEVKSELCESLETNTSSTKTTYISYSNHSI

How did the z-score turn out when `O=C1NN(c2ccccc2)C(=O)/C1=C\c1cccn1-c1ccc(Cl)c([N+](=O)[O-])c1` was run?
Its z-score is -0.471.

How did the z-score turn out when `Cc1c2c(nc3c(C)cccc13)OC(C)C2` (stereo not given) was run?
Its z-score is -0.282.

How did the z-score turn out when `CCOC(=O)c1cnc2cc(-c3ccc(C(C)(C)C)cc3)nn2c1N` was run?
Its z-score is -0.286.

For `COC(=O)c1sc(NC(=O)COc2ccc(C)cc2)nc1C`, which z-score is on record?
The z-score was 0.145.

`Cc1ccc(OCCN2CCN(c3ncnc4sc(C)c(C)c34)CC2)cc1` was tested. Which z-score did it give?
The z-score was -2.57.

For `CCSc1nc(C2CC2)cc(-c2cccs2)c1C#N`, which z-score is on record?
Its z-score is -0.0632.

For `COC(=O)c1c(NC(=O)c2c(C)noc2C)sc2c1CCCCCC2`, which z-score is on record?
The z-score was -0.379.

For `CSc1ccccc1NS(=O)(=O)c1ccc2c(c1)OCCO2`, which z-score is on record?
Its z-score is -0.0827.

With `COc1ccc(NC(=O)/C=C/c2ccccc2[N+](=O)[O-])c(OC)c1` as the compound, how does the z-score read?
The z-score was -0.345.

With `Cc1cccc(C)c1Nc1nnc(SCC(=O)c2ccc(Br)s2)s1` as the compound, how does the z-score read?
Its z-score is 0.224.

Which z-score does the source give for `CCOC(=O)c1ccc(NC(=S)N(CCCN2CCCC2)Cc2ccco2)cc1` here?
Its z-score is -0.178.

For `Cc1cccc(Oc2cc(NC(=O)c3ccccc3)cc([N+](=O)[O-])c2)c1`, which z-score is on record?
Its z-score is -0.382.

How did the z-score turn out when `CSc1cccc(NC(=O)CN(C2CCCCC2)S(C)(=O)=O)c1` was run?
Its z-score is -0.0458.

Which z-score does the source give for `Cn1c(Sc2ccccc2Cl)c(C=O)c2ccccc21` here?
The z-score was -0.196.

`O=C(CN1C(=O)S/C(=C/c2ccc(N3CCOCC3)cc2)C1=O)N1CCOCC1` was tested. Which z-score did it give?
Its z-score is -0.199.

For `COC(=O)CNC(=O)CN1c2cccc3cccc(c23)S1(=O)=O`, which z-score is on record?
The z-score was -0.0323.

`COC(=O)c1ccc(CNC(=O)COC(=O)C2CCC(C(C)(C)C)CC2)cc1` (stereo not given) was tested. Which z-score did it give?
Its z-score is -0.626.

How did the z-score turn out when `CC(C)(C)C(=O)NC(NC(=O)C(C)(C)C)c1ccc([N+](=O)[O-])cc1` was run?
Its z-score is -0.235.

For `CCCCOc1ccc(-c2nnn(C(C)C(=O)OCC)n2)cc1` (stereo not given), which z-score is on record?
Its z-score is -0.5.

`OCCN=Cc1c(O)[nH]c2ccccc12` was tested. Which z-score did it give?
Its z-score is -0.00527.

How did the z-score turn out when `COc1cc(OC)cc(C(=O)NCC(=O)N2CCCCC2)c1` was run?
The z-score was 0.281.

`COc1cccc(C(=O)NCC(=O)N/N=C/c2cccc(OC(=O)c3ccc([N+](=O)[O-])cc3)c2)c1` was tested. Which z-score did it give?
Its z-score is -0.566.

Which z-score does the source give for `CS(=O)(=O)c1ccc2nc(NC(=O)C3C4C=CC(C4)C3C(=O)O)sc2c1` (stereo not given) here?
Its z-score is active: 4.92.

For `COc1ccccc1N1C(N)=NC(N)=NC1(C)C`, which z-score is on record?
Its z-score is -0.0746.

With `O=C(N/N=C1\CCCc2ccccc21)c1ccc([N+](=O)[O-])cc1` as the compound, how does the z-score read?
The z-score was 1.47.

For `O=C(COC(=O)[C@H](Cc1ccccc1)NC(=O)c1cccs1)NC1CC1`, which z-score is on record?
Its z-score is -0.0981.

How did the z-score turn out when `Cc1cc2nnc(SCCCCN3C(=O)c4ccccc4C3=O)n2c2ccccc12` was run?
Its z-score is -0.317.

`CCOC(=O)c1cc(-c2ccc(C)o2)n[nH]1` was tested. Which z-score did it give?
The z-score was 0.0347.

Which z-score does the source give for `CCN(CC)C(=O)N1c2ccccc2C=Cc2ccccc21` here?
Its z-score is -0.214.

For `CCOC(=O)c1c(NC(=O)C2C3C=CC(C3)C2C(=O)O)sc2c1CCC(CC)C2` (stereo not given), which z-score is on record?
Its z-score is active: 3.71.
